# Several values for one entry are separate records, joined by “and”; a condition that tells them apart may be missing. Equal values may be shown once. The campaign covered roughly 150,000 compounds. About 6,500 (4.3%) were called active. The inconclusive results got no clear call from the source; some entries with a clear call stand among them for comparison. Calls follow the shape of the dose curve; as a rule, active = well fitted inhibition curve with a large enough effect (not every such curve was filed as active); inconclusive = small, poorly fitted or top-dose-only effect, or another doubt; inactive = no such curve, though single readings can be large or run the other way. Where the call is inconclusive, the potency comes from a doubtful curve fit.
# Target: 15-hydroxyprostaglandin dehydrogenase [NAD(+)] (Homo sapiens) (UniProt P15428)
# Sequence of UniProt P15428 (P15428 whole entry, looked up): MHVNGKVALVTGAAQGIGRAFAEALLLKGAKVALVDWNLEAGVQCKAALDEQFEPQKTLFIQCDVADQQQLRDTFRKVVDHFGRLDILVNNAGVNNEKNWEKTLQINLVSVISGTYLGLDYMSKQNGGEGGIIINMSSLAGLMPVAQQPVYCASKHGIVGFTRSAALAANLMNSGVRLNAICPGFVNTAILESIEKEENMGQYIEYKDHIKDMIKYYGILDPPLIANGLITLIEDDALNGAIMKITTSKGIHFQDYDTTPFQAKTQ
# Experiment: qHTS Assay for Inhibitors of HPGD (15-Hydroxyprostaglandin Dehydrogenase)
# Conditions: purified HPGD, NADH fluorescence kinetic, PGE2 substrate; activity change, negative = inhibition: hits give low values
# In short: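 20 nM HPGD preincubated 15 min at room temperature with compound in 50 mM Tris-HCl pH 8, 0.01% Tween 20. Started with 1 mM NAD+ and 30 uM prostaglandin E2; NADH fluorescence (360/450 nm) read 5 times over 30-s intervals, last minus first.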
# % is scaled to controls: 0 for no effect and ±100 for the full control effect; potency is read from the fitted curve at half-maximal effect; tags tell the direction and shape of the fitted curve.
Compound,Potency,"activity change, negative = inhibition"
CCC(=O)N1CCN(c2nc(-c3ccccc3)c3c(c2C#N)CCCC3)CC1,"inconclusive: 25.1 µM [inhibitor, partial curve]",–
CCOc1ccc2[nH]c(=O)c(CN(CC3CCCN3CC)C(=O)NCc3ccccc3)cc2c1 (centres undefined),"inconclusive: 20 µM [inhibitor, single point]",–
CCOc1ccc(/C=C/C2=Cc3c(sc(NC(=O)CSc4n[nH]c(N)n4)c3C#N)C(C)(C)C2)cc1,"inconclusive: 25.1 µM [inhibitor, partial curve, poor fit]",–
COc1cc(/C=C2/C(=O)NN(c3ccc(Cl)cc3)C2=O)ccc1OC(=O)c1ccco1,active: 7.94 µM,–
CCN(CC)S(=O)(=O)c1ccc(C(=O)Nc2cc3oc4ccccc4c3cc2OC)cc1,–,inactive: -13.4%
COC(=O)c1ccc(Oc2c(C)oc3c(CN4CCN(C)CC4)c(O)ccc3c2=O)cc1,"inconclusive: 14.1 µM [inhibitor, partial curve]",–
COCC(C)NC(=O)c1cccc(Cl)c1 (centres undefined),"inconclusive: 35.5 µM [inhibitor, partial curve]",–
Cc1cc(NCCCn2ccnc2)n2nc(C)c(-c3ccccc3)c2n1,–,inactive: -12.7%
COCc1cc(=O)[nH]c(SCC(=O)Nc2ccccc2)n1,–,inactive: -5.75%
O=C1OC(Cc2ccccn2)C(O)=C1C1=NCCCCN1 (centres undefined),"inconclusive: 39.8 µM [inhibitor, single point]",–
Cc1csc(NC(=O)c2ccccc2O)n1,"inconclusive: 31.6 µM [inhibitor, partial curve]",–
Cc1c(C(=O)Nc2ccc(F)cc2)oc2ccc(S(=O)(=O)N3CCCC3)cc12,"inconclusive: 31.6 µM [inhibitor, single point]",–
CC(OC(=O)CNC(=O)c1ccccc1F)C(=O)Nc1nc(-c2ccccc2)cs1 (centres undefined),–,inactive: -23.7%
C=CCOC(=O)COc1ccc2c(C)c(C)c(=O)oc2c1,"inconclusive: 28.2 µM [inhibitor, partial curve]",–
Cc1cccnc1Sc1c([N+](=O)[O-])ncn1C,–,inactive: -7.86%
CCC(C)(C)n1nnnc1CN(Cc1ccco1)Cc1cc2cc3c(cc2[nH]c1=O)OCO3,"inconclusive: 31.6 µM [inhibitor, single point]",–
CC1CCCN(C(=O)c2ccc3nc[nH]c3c2)C1 (centres undefined),active: 2 µM,–
Cc1ccc(Cn2ccc(NC(=O)c3noc4c3CCc3ccccc3-4)n2)cc1,"inconclusive: 39.8 µM [inhibitor, single point]",–
Cc1cc(C)c2cc(C#N)c(NCCCNC(=O)CCC(=O)O)nc2c1,"inconclusive: 28.2 µM [inhibitor, partial curve]",–
Fc1ccc(C2=CC(c3ccco3)n3ncnc3N2)cc1 (centres undefined),"inconclusive: 35.5 µM [inhibitor, partial curve]",–
CCOC(=O)c1c(-c2ccccc2)csc1NC(=O)c1cc(S(=O)(=O)N2CCOCC2)ccc1C,"inconclusive: 35.5 µM [inhibitor, partial curve]",–
CC1(C)CC(=O)C(=Cc2cn(CCC#N)nc2-c2ccc(Cl)cc2)C(=O)C1,active: 15.8 µM,–
COc1ccc(S(=O)(=O)Nc2ccc(S(=O)(=O)Nc3nc(C)cc(C)n3)cc2)cc1OC,–,inactive: -8.67%

Compound,Potency,"activity change, negative = inhibition"
Cc1ccc2c3c1C(=O)C(=O)N3C(C)(C)CC2C (centres undefined),–,inactive: -4.04%
COc1ccc(NC(=O)CCSc2ccc3ccccc3n2)cc1,–,inactive: -11.7%
O=C(COc1ccc(Br)cc1CNCCCN1CCOCC1)Nc1ccccc1,–,inactive: -4.64%
Cc1nc(SCC(=O)NCC2CCCO2)c2oc3ccccc3c2n1 (centres undefined),"inconclusive: 28.2 µM [inhibitor, single point]",–
CC(C)c1ccccc1-n1c(SCc2cc(=O)oc3ccc4ccccc4c23)nnc1-c1cccnc1,"inconclusive: 25.1 µM [inhibitor, partial curve]",–
O=c1cnc2cnc(N3CCOCC3)nc2n1Cc1ccc(F)cc1,"inconclusive: 5.62 µM [inhibitor, full curve]",–
CCNc1nc(C)cc(COC)c1C#N,"inconclusive: 28.2 µM [inhibitor, partial curve]",–
COC(=O)[C@@H]1C[C@H]1[C@@H](NC(=O)Oc1ccc(F)cc1)c1ccccc1,–,inactive: -6.26%
Cc1cccc(-c2cc(=O)c3cc(C)ccc3o2)c1,"inconclusive: 35.5 µM [inhibitor, partial curve]",–
CC1=NN(c2ccc(C)cc2C)C(=O)C1C(c1ccccc1O)C1C(=O)N(c2ccc(C)cc2C)N=C1C (centres undefined),–,inactive: -25.3%
NNc1nc(-c2ccccc2Cl)nc2sc3c(c12)CCCC3,active: 12.6 µM,–
CCc1nc(-c2ccc(-c3ccc(OC)cc3)nc2OC)no1,"inconclusive: 35.5 µM [inhibitor, partial curve]",–
CCc1ccc(C(=O)COc2ccc(NC(C)=O)cc2)cc1,–,inactive: -13.2%
CC(C)C1N=C2c3ccccc3N=C(SCC(=O)c3ccc(O)c(O)c3)N2C1=O (centres undefined),"inconclusive: 28.2 µM [inhibitor, single point]",–
CCn1c(O)c(/C=N/N=C2CCCC2)c2ccc(C3=NNC(=O)CC3)cc21,active: 15.8 µM,–
CCOC(=O)C1=C(Nc2ccccc2)CC(C)(O)C(C(=O)OCC)C1c1ccc(Cl)cc1 (centres undefined),–,inactive: -6.87%
COC(=O)C1=C(C(=O)OC)N2C=CC=CC2(C)C(C(=O)OC)=C1C(=O)OC (centres undefined),active: 35.5 µM,–
CCc1nc(N2CCCC2C(=O)O)c2oc3ccccc3c2n1 (centres undefined),"inconclusive: 25.1 µM [inhibitor, partial curve]",–
CCOc1ccc2[nH]c(=O)c(CN(Cc3ccco3)Cc3nnnn3Cc3ccccc3)cc2c1,"inconclusive: 25.1 µM [inhibitor, partial curve]",–
O=C1c2ccccc2C(Nc2ccc(F)c(Cl)c2)N1Cc1ccco1 (centres undefined),"inconclusive: 39.8 µM [inhibitor, single point]",–
O=C(CCN1C(=O)c2ccccc2C1=O)OCN1C(=O)c2ccccc2C1=O,–,inactive: -16.5%
CCN(CC)c1nc(C#N)cc(-c2ccc(OC)cc2)n1,"inconclusive: 25.1 µM [inhibitor, partial curve]",–
O=C1CCCC(=O)C1=C1SCCS1,–,inactive: -11.1%

Compound,Potency,"activity change, negative = inhibition"
C#CCSc1nnc(-c2sc(-c3ccccc3)nc2C)n1C,"inconclusive: 28.2 µM [inhibitor, partial curve]",–
COc1cccc(S(=O)(=O)NCc2ccc(C(=O)Nc3ccc(Cl)c(Cl)c3)cc2)c1,"inconclusive: 28.2 µM [inhibitor, partial curve]",–
COc1ccc(C(=O)/C=C/c2cn(CN3CCN(C)CC3)c3ccccc23)cc1,"inconclusive: 35.5 µM [inhibitor, single point]",–
O=C(CC1CCCC1)NCCc1cn2ccccc2n1,"inconclusive: 25.1 µM [inhibitor, partial curve]",–
C=CCn1c(CNC(=O)c2cccs2)n[nH]c1=S,–,inactive: -18.1%
O=C(O)CC12CSc3[nH]c(=O)sc3C1c1ccccc1OC2=O (centres undefined),"inconclusive: 14.1 µM [inhibitor, partial curve]",–
COc1ccc([N+](=O)[O-])cc1NC(=O)CC(c1ccccc1)c1ccccc1,"inconclusive: 11.2 µM [inhibitor, partial curve]",–
C/C(=N\O)C(C)(C)NC(=O)Nc1ccc(Cl)cc1,–,inactive: 1.29%
COc1ccc(C(=O)OCC(=O)c2ccccc2)cc1S(=O)(=O)N1CCOCC1,–,inactive: -4.34%
COc1ccc2c(c1)OCC(Cc1ccc(O)c(OC)c1)C2=O (centres undefined),"inconclusive: 8.91 µM [inhibitor, single point]",–
COc1cc(/C=N/NC(=O)CCc2n[nH]c(=O)[nH]c2=O)cc(OC)c1OC,"inconclusive: 25.1 µM [inhibitor, partial curve]",–
Cc1ccc(C)c(OCc2nnc(N)s2)c1,"inconclusive: 31.6 µM [inhibitor, single point]",–
S=C(NCc1ccccc1)Nc1cccc(Cl)c1,active: 14.1 µM,–
CCOC(=O)CSc1nc(N)c(C(=O)Nc2ccc(N(C)C)cc2)s1,–,inactive: -2.41%
O=C(CCn1cnc2ccccc21)N/N=C/c1ccc(O)cc1,"inconclusive: 28.2 µM [inhibitor, partial curve]",–
CC(=O)c1ccc(NC(=O)OCCN2CCN(Cc3ccccc3)CCC2=O)cc1,–,inactive: -18.7%
CC1CCN(C(=O)CSc2nc(N)c3c4c(sc3n2)CN(C)CC4)CC1,"inconclusive: 10 µM [inhibitor, partial curve]",–
O=C(Nc1ccccc1C(=O)NC(Cc1ccccc1)C(=O)NC1CCCCCC1)c1ccccc1 (centres undefined),"inconclusive: 31.6 µM [inhibitor, single point]",–
O=C1CC(N2CCC(O)(c3ccc(Br)cc3)CC2)C(=O)N1c1ccc(Cl)cc1 (centres undefined),–,inactive: -1.07%
C[n+]1cc2c3c(ccc2c2ccc4cc5c(cc4c21)OCO5)OCO3,"inconclusive: 14.1 µM [inhibitor, partial curve] and inconclusive: 31.6 µM [inhibitor, partial curve] and inconclusive: 28.2 µM [inhibitor, partial curve]",–
N#Cc1nc(COc2ccc(Cl)cc2)oc1NCc1ccc2c(c1)OCO2,"inconclusive: 25.1 µM [inhibitor, partial curve, poor fit]",–
COc1cccc2sc(N(C)c3ccccc3)nc12,"inconclusive: 31.6 µM [inhibitor, single point]",–
O=S(=O)(c1cc(-c2nc3ccccc3s2)ccc1Cl)N1CCOCC1,"inconclusive: 28.2 µM [inhibitor, partial curve]",–
